About 3,600 (1.6%) of roughly 230,000 compounds were called active. Inconclusive means that the source gave no clear call. Such entries were picked first, then a sample of the others. Calls follow the shape of the dose curve; as a rule, active = well fitted inhibition curve with a large enough effect (not every such curve was filed as active); inconclusive = small, poorly fitted or top-dose-only effect, or another doubt; inactive = no such curve, though single readings can be large or run the other way. Potencies of inconclusive entries are doubtful fits and often do not repeat.
The compounds below were run against Lysine-specific demethylase 4E (Homo sapiens) (UniProt B2RXH2) (assay: qHTS Assay for Inhibitors of Human Jumonji Domain Containing 2E (JMJD2E)). Conditions: JMJD2E catalytic domain, FDH-coupled NADH fluorescence (FDH is formaldehyde dehydrogenase); series mostly up to 57.1 µM; activity change, negative = inhibition: at the top concentration.
Sequence of UniProt B2RXH2 (B2RXH2 whole entry, looked up, the tested form may be a part): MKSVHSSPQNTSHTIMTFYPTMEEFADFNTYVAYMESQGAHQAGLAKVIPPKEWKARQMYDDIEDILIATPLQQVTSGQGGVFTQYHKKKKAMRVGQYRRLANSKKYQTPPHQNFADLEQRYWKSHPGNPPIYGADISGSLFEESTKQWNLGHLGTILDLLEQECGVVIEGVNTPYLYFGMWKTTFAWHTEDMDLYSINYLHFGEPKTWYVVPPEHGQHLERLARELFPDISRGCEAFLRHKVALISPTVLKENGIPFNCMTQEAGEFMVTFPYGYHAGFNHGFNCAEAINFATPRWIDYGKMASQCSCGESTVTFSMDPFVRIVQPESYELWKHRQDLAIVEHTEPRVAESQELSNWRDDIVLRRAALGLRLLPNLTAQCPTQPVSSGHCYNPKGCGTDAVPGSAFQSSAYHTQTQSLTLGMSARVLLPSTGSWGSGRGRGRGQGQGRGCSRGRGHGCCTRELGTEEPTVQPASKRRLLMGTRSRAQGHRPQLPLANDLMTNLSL
For `Cc1nnc(SC2CC(=O)N(c3ccccc3)C2=O)s1` (centres undefined), the “activity change, negative = inhibition” value was inactive: -3.16%.
`CC(=O)c1ccc(N2CCN(C(=O)c3ccc(Br)cc3)CC2)c(F)c1` was tested, and the “activity change, negative = inhibition” value was inactive: 4.02%.
In the case of `COc1ccc2cc3cc(C(=O)NCc4ccco4)oc3nc2c1`, the Potency is reported as inconclusive: 12.6 µM [inhibitor, partial curve].
`CCc1ccc(NC(=S)Nn2cnnc2)cc1` was tested, and the “activity change, negative = inhibition” value was inactive: -26.7%.
For `C/C(CC(=O)Nc1ccc(Cl)cc1)=N\NC(=O)C(=O)N1CCCCC1`, the “activity change, negative = inhibition” value was inactive: 22.9%.
For `Cc1ccc(/C=C/C(=O)Nc2nccs2)o1`, the “activity change, negative = inhibition” value was inactive: -27.1%.
`CC(C(=O)Nc1sc2c(c1C(=O)NCc1ccco1)CCCC2)N1C(=O)c2ccccc2C1=O` (centres undefined) was tested, and the “activity change, negative = inhibition” value was inactive: -0.413%.
`S=c1nc(-c2cc(Cl)ccc2Cl)[nH][nH]1` was tested, and the “activity change, negative = inhibition” value was inactive: -18.5%.
With `COc1cc(N=Nc2cccc(S(N)(=O)=O)c2)c2ccccc2c1N` the Potency was inconclusive: 28.2 µM [inhibitor, partial curve, poor fit].
In the case of `COc1ccc2nc(-n3c(O)c(C4=c5ccccc5=NC4=O)[nH]c3=S)sc2c1`, the “activity change, negative = inhibition” value is reported as inactive: 13.7%.
In the case of `Cc1nc2ccc(-c3nc4ccc(N)cc4[nH]3)cc2[nH]1`, the Potency is reported as inconclusive: 28.2 µM [inhibitor, partial curve].
With `CCN1C(=O)/C(=C2/C=Cc3cc(C)ccc3N2CC)N(C)C1=S` the Potency was inconclusive: 31.6 µM [inhibitor, single point].
`Cn1c(N2CCOCC2)nc2c1c(=O)n(Cc1ccc(Cl)c(Cl)c1)c(=O)n2C` was tested, and the “activity change, negative = inhibition” value was inactive: 3.71%.
For `O=C(c1cccs1)N1CCCC(c2nc3c(nnn3Cc3ccccc3)c(=O)[nH]2)C1` (centres undefined), the “activity change, negative = inhibition” value was inactive: 0.882%.
`CCn1c(=O)c(C(=O)NC(C)C)c(O)c2ccccc21` was tested, and the Potency was inconclusive: 31.6 µM [inhibitor, single point].
With `COc1ccccc1C(=O)N=c1sc2c(C)ccc(OC)c2n1C` the Potency was inconclusive: 31.6 µM [inhibitor, partial curve].
With `Clc1ccc2[nH]c3c(NCCCN4CCOCC4)ncnc3c2c1` the Potency was inconclusive: 31.6 µM [inhibitor, single point].
In the case of `O=C(Nc1ccc2c(c1)OCCO2)c1cc2sccc2n1Cc1ccccc1`, the Potency is reported as inconclusive: 39.8 µM [inhibitor, single point].
With `COc1cccc(Oc2c(C)oc3c(CN4CCCCC4)c(O)ccc3c2=O)c1` the Potency was inconclusive: 31.6 µM [inhibitor, partial curve].
In the case of `CC(CC(=O)O)CC(=O)Nc1ccc(Br)cc1` (centres undefined), the “activity change, negative = inhibition” value is reported as inactive: -0.584%.
`O=C(CSc1ccc(Br)cc1)N1CCN(C(=O)c2ccco2)CC1` was tested, and the “activity change, negative = inhibition” value was inactive: 5.17%.
In the case of `CC(/C=N/Nc1nc2ccccc2[nH]1)=C\c1ccccc1`, the Potency is reported as inconclusive: 28.2 µM [inhibitor, single point].
With `CCOC(=O)C1CCCN(c2oc(-c3ccc(OC)cc3)nc2C#N)C1` (centres undefined) the Potency was inconclusive: 28.2 µM [inhibitor, partial curve].
With `O=C(CNC(=O)c1ccccc1O)N/N=C/c1cc(Br)ccc1OC(=O)/C=C/c1ccco1` the Potency was inconclusive: 39.8 µM [inhibitor, single point].
In the case of `CCOC(=O)C1=C(CSc2nc3c(cc2C#N)CN(C)CC3)OC(N)=C(C#N)C1c1ccncc1` (centres undefined), the Potency is reported as inconclusive: 22.4 µM [inhibitor, partial curve].
`Cc1ccc(C(=O)C2CCN(CC(=O)Nc3ccc(N(C)C)cc3)CC2)cc1` was tested, and the “activity change, negative = inhibition” value was inactive: 0.328%.
For `COc1cc(-c2nn3c(COc4ccccc4)nnc3s2)cc(OC)c1OC`, the Potency was inconclusive: 28.2 µM [inhibitor, partial curve].
With `CC(C)c1ccc(NC(=S)Nc2ccc3cn[nH]c3c2)cc1` the Potency was inconclusive: 20 µM [inhibitor, partial curve, poor fit].
`COc1ccc(-c2nnc(Nc3ccc(OC)c(C(=O)N4CCCCC4)c3)c3ccccc23)cc1` was tested, and the “activity change, negative = inhibition” value was inactive: -4.28%.
`Cc1cccc(N2CCN(CC(O)COCc3cccs3)CC2)c1C` (centres undefined) was tested, and the “activity change, negative = inhibition” value was inactive: 13.8%.
For `COc1cc(OC)cc(-c2cc3nc(C)c(CCC(=O)O)c(=O)n3[nH]2)c1`, the Potency was inconclusive: 31.6 µM [inhibitor, partial curve].
`C=CCn1c(-c2cccc3ccccc23)n[nH]c1=S` was tested, and the “activity change, negative = inhibition” value was inactive: -11.4%.
`CCOC(=O)Cc1nnc(NC(=O)C(CC)Sc2nncn2C)s1` (centres undefined) was tested, and the “activity change, negative = inhibition” value was inactive: -5.15%.
In the case of `O=C(CCl)Nc1cccc(Oc2ccccc2)c1`, the “activity change, negative = inhibition” value is reported as inactive: -2.74%.
For `Cc1ccc(C)c(C(C)NC(=O)CC#N)c1` (centres undefined), the “activity change, negative = inhibition” value was inactive: 22%.
`Cc1cc(C(=O)CN2C(=O)c3cccc(N)c3C2=O)c(C)n1Cc1cccs1` was tested, and the Potency was inconclusive: 22.4 µM [inhibitor, partial curve].
`COc1cc2c(cc1OC)-c1cc(Nc3ccccc3)nc(=O)n1CC2` was tested, and the Potency was inconclusive: 28.2 µM [inhibitor, partial curve].
For `COc1ccc(-n2cc(-c3ccccc3)c3c(N4CCOCC4)ncnc32)cc1`, the Potency was inconclusive: 28.2 µM [inhibitor, partial curve].
With `CC(=O)Nc1sc2c(c1-c1nc3ccccc3s1)CCN(C(C)C)C2` the Potency was inconclusive: 17.8 µM [inhibitor, partial curve].
`Cc1ccc2c(c1)/C(=C/c1ccco1)C(=O)N2` was tested, and the “activity change, negative = inhibition” value was inactive: -8.08%.
`COc1ccccc1/C=C1/SC(=O)N(CCC(=O)Nc2ccc(S(=O)(=O)Nc3nccs3)cc2)C1=O` was tested, and the Potency was inconclusive: 25.1 µM [inhibitor, partial curve].
`CCN(CC)CCC(C)OC(=O)c1ccc(O)cc1O` (centres undefined) was tested, and the “activity change, negative = inhibition” value was inactive: -6.53%.
In the case of `Cc1c(NS(=O)(=O)c2ccc3c(c2)OCCO3)cccc1-c1nc2cccnc2s1`, the Potency is reported as inconclusive: 4.47 µM [inhibitor, single point].
In the case of `CCOC(=O)C1C(=O)C=C(c2ccc(OC)cc2)CC1c1ccco1` (centres undefined), the Potency is reported as inconclusive: 28.2 µM [inhibitor, single point].
`COc1ccc(-c2nc(-c3cccs3)c(-c3cccs3)[nH]2)cc1O` was tested, and the Potency was inconclusive: 31.6 µM [inhibitor, partial curve].
`Cc1ccc(N2C(=O)CC3(CC4C=CC3C4)C2=O)cc1` (centres undefined) was tested, and the “activity change, negative = inhibition” value was inactive: 3.9%.
With `O=S(=O)(Nc1nc2ccccc2nc1Cl)c1ccccc1` the Potency was inconclusive: 25.1 µM [inhibitor, partial curve].
For `Cc1cc(N2CCN(C)CC2)nc2ccc(NC(=S)NCCCN3CCN(C)CC3)cc12`, the Potency was inconclusive: 31.6 µM [inhibitor, single point].
`O=C(NCCc1ccccc1)c1ccc(=O)oc1` was tested, and the “activity change, negative = inhibition” value was inactive: -1.38%.

Reference: PubChem BioAssay AID2147 (National Center for Advancing Translational Sciences (NCATS), 2009)
Also: nearly all actives have a fitted effect of over 50% in size.
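For activity change, negative = inhibition in this document: 0% = wells with enzyme and -100% = buffer wells without enzyme.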
Potency is read from the fitted curve at half-maximal effect; tags tell the direction and shape of the fitted curve.
